This note sets out measurements from the BET-seq Pho4 binding data (Le et al. 2018).

Some of the results follow. Values were computed here from the reads of four pooled replicates and scatter widely.

The assay deals with T1, Pho4 (S. cerevisiae) (UniProt P07270).
T1 sequence: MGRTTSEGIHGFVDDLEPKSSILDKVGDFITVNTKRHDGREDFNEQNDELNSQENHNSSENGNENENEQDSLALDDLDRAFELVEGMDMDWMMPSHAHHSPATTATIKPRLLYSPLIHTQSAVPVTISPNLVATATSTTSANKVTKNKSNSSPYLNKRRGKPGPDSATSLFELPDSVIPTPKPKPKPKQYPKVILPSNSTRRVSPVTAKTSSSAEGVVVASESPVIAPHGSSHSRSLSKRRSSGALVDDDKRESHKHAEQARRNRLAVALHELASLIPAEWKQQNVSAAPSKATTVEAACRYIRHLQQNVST
Kind of assay: relative binding free energy (BET-seq); higher = weaker binding. Particulars: reference: library average.
Consider TGGTTCACGTGTTCTC, for which the “relative binding free energy” value is 0.27 kcal/mol.

Take AGGTACACGTGTGTTA: the “relative binding free energy” value came to 0.05 kcal/mol.

With TCCTACACGTGGGGGT, the “relative binding free energy” value is -0.08 kcal/mol.

Take GAGATCACGTGGTTGA: the “relative binding free energy” value was 0.13 kcal/mol.

For the sequence ATGGGCACGTGTTGAC, the “relative binding free energy” value was -0.14 kcal/mol.

In the case of CCTGTCACGTGGGATT, the “relative binding free energy” value was 0.07 kcal/mol.

As to CTTTGCACGTGGTGTG, the “relative binding free energy” value is -0.04 kcal/mol.

As to AGAATCACGTGCGGGT, the “relative binding free energy” value is 0.17 kcal/mol.

As to GGTTACACGTGGACGG, the “relative binding free energy” value turned out to be 0.16 kcal/mol.

For TCGGACACGTGTTCGG, the “relative binding free energy” value was 0.15 kcal/mol.

As to TGTATCACGTGGTGGG, the “relative binding free energy” value stood at 0.09 kcal/mol.

For TTCAGCACGTGATTGT, the “relative binding free energy” value is 0.12 kcal/mol.

With ATTTGCACGTGCGCTG, the “relative binding free energy” value is -0.03 kcal/mol.

With CTTGGCACGTGGTAGG, the “relative binding free energy” value was -0.16 kcal/mol.

With GCAGTCACGTGGTAGG, the “relative binding free energy” value is 0.21 kcal/mol.

Turning to CAGGGCACGTGCGGGG, the “relative binding free energy” value is -0.22 kcal/mol.

Take GTGTACACGTGTCTTG: the “relative binding free energy” value was 0 kcal/mol.

In the case of ATAGGCACGTGTGTTA, the “relative binding free energy” value came out at 0.01 kcal/mol.

Turning to TTCTTCACGTGGCGGG, the “relative binding free energy” value is 0.28 kcal/mol.

For the sequence GGAGACACGTGTGGCG, the “relative binding free energy” value came to 0.1 kcal/mol.

As to TGTTGCACGTGTCCTT, the “relative binding free energy” value stood at 0.1 kcal/mol.

With AAGAACACGTGTTGTT, the “relative binding free energy” value was 0.05 kcal/mol.

Turning to GTGGCCACGTGGAAGT, the “relative binding free energy” value turned out to be 0.04 kcal/mol.

Regarding GTGGGCACGTGTGCAA, the “relative binding free energy” value is -0.12 kcal/mol.

On to TTACCCACGTGTGGTT, for which the “relative binding free energy” value was -0.02 kcal/mol.

For the sequence ATTGACACGTGGTTCG, the “relative binding free energy” value was -0.05 kcal/mol.

As to TTAGGCACGTGGTTTA, the “relative binding free energy” value was -0.22 kcal/mol.

As for CAATACACGTGTGTTT, the “relative binding free energy” value came to 0.04 kcal/mol.

As for TTCTGCACGTGGCTTG, the “relative binding free energy” value is -0.15 kcal/mol.

With GTGTTCACGTGTACAT, the “relative binding free energy” value turned out to be 0.16 kcal/mol.

For the sequence GTTTTCACGTGGTGCT, the “relative binding free energy” value stood at 0.4 kcal/mol.

Turning to AAGTACACGTGTTATT, the “relative binding free energy” value was -0.01 kcal/mol.

Consider GAGGGCACGTGCGAGG, for which the “relative binding free energy” value is -0.09 kcal/mol.

With GTGGACACGTGTCGTG, the “relative binding free energy” value was determined as 0 kcal/mol.

Take AGATGCACGTGGCGGG: the “relative binding free energy” value is -0.08 kcal/mol.

As for TGACACACGTGTAGGG, the “relative binding free energy” value was -0.01 kcal/mol.

On to AGTAGCACGTGGATTA, for which the “relative binding free energy” value is -0.04 kcal/mol.

For the sequence GCGGGCACGTGTGATG, the “relative binding free energy” value is -0.03 kcal/mol.

GATTGCACGTGAGTAA: the “relative binding free energy” value is 0.3 kcal/mol.

Consider ATAATCACGTGAGATT, for which the “relative binding free energy” value came out at 0.35 kcal/mol.

For the sequence ATGGACACGTGTTGCG, the “relative binding free energy” value was -0.11 kcal/mol.

AGGAACACGTGGTAAG: the “relative binding free energy” value turned out to be 0.06 kcal/mol.

As to TTTTTCACGTGGCCTA, the “relative binding free energy” value was 0.2 kcal/mol.

Consider CGAGGCACGTGGGTGT, for which the “relative binding free energy” value is -0.24 kcal/mol.

As to GGGAGCACGTGGGATA, the “relative binding free energy” value was -0.12 kcal/mol.

Take GTTGACACGTGTAAGG: the “relative binding free energy” value was determined as 0.16 kcal/mol.

As to TCAGTCACGTGAGGTA, the “relative binding free energy” value is 0.3 kcal/mol.

CGTAGCACGTGGGTAA: the “relative binding free energy” value was -0.17 kcal/mol.

On to TGGTTCACGTGAAGTC, for which the “relative binding free energy” value turned out to be 0.34 kcal/mol.

Turning to GTGTGCACGTGGAGCA, the “relative binding free energy” value worked out at 0.05 kcal/mol.

TGTGTCACGTGTTGTA: the “relative binding free energy” value is 0.06 kcal/mol.

Consider GCAGGCACGTGGTGAG, for which the “relative binding free energy” value is -0.19 kcal/mol.

In the case of GAGGCCACGTGGGGAG, the “relative binding free energy” value is -0.05 kcal/mol.

With ATAGGCACGTGGGCGG, the “relative binding free energy” value was -0.26 kcal/mol.

Take TTTTTCACGTGTTCCT: the “relative binding free energy” value worked out at 0.36 kcal/mol.

With AATTACACGTGGTGTG, the “relative binding free energy” value was -0.1 kcal/mol.

For GACGGCACGTGGTGGA, the “relative binding free energy” value was -0.14 kcal/mol.

Regarding TGGATCACGTGGCGTG, the “relative binding free energy” value worked out at 0.08 kcal/mol.

As for CGGGTCACGTGTTGAG, the “relative binding free energy” value came to 0.13 kcal/mol.

On to GAGTTCACGTGTTCTT, for which the “relative binding free energy” value was 0.56 kcal/mol.

As to GGTTGCACGTGTGGGA, the “relative binding free energy” value was 0.1 kcal/mol.

Consider TTTAGCACGTGATTTC, for which the “relative binding free energy” value is 0.03 kcal/mol.

As for AAAAACACGTGTTGGA, the “relative binding free energy” value worked out at 0.06 kcal/mol.

Consider GGTTGCACGTGGTACA, for which the “relative binding free energy” value was -0.14 kcal/mol.

For the sequence TCGTTCACGTGATGTG, the “relative binding free energy” value worked out at 0.35 kcal/mol.

Consider CAGGTCACGTGTAGGT, for which the “relative binding free energy” value is 0.13 kcal/mol.

Consider TAAGCCACGTGTTTGT, for which the “relative binding free energy” value is -0.14 kcal/mol.

On to CAGGTCACGTGTTGTA, for which the “relative binding free energy” value stood at 0.11 kcal/mol.

With AGGTTCACGTGCGGGG, the “relative binding free energy” value was determined as 0.21 kcal/mol.

For the sequence TAATTCACGTGAGTAA, the “relative binding free energy” value came out at 0.49 kcal/mol.

Regarding AGTACCACGTGTTGTT, the “relative binding free energy” value is -0.12 kcal/mol.

CTGGGCACGTGTGATT: the “relative binding free energy” value is -0.06 kcal/mol.

Take GGCGGCACGTGTGTTG: the “relative binding free energy” value came out at 0.08 kcal/mol.

As to GTGTTCACGTGCACGT, the “relative binding free energy” value is 0.18 kcal/mol.

In the case of AGTTTCACGTGGGTTG, the “relative binding free energy” value was 0.3 kcal/mol.

For the sequence GTGCTCACGTGAATTT, the “relative binding free energy” value stood at 0.51 kcal/mol.

GGTTTCACGTGGGAAC: the “relative binding free energy” value came out at 0.21 kcal/mol.

In the case of TGGTCCACGTGAGTAA, the “relative binding free energy” value came to 0.39 kcal/mol.

Turning to AGCGACACGTGGGGAG, the “relative binding free energy” value is -0.08 kcal/mol.

Consider TGTCACACGTGGGTTT, for which the “relative binding free energy” value was 0.01 kcal/mol.

Take GGGATCACGTGTTACT: the “relative binding free energy” value was 0.2 kcal/mol.

Take ATCTGCACGTGGCGGG: the “relative binding free energy” value is -0.1 kcal/mol.

In the case of TCTTGCACGTGTTGGT, the “relative binding free energy” value amounted to 0.04 kcal/mol.

Consider TGTCCCACGTGTGGTT, for which the “relative binding free energy” value was -0.13 kcal/mol.

For the sequence CACGGCACGTGTTGGG, the “relative binding free energy” value was -0.07 kcal/mol.

Consider GGGGGCACGTGTCGTA, for which the “relative binding free energy” value is -0.1 kcal/mol.

For GTGATCACGTGGTGGC, the “relative binding free energy” value came to 0.07 kcal/mol.

As for TTGGTCACGTGATTGG, the “relative binding free energy” value was determined as 0.15 kcal/mol.

For AAATGCACGTGATGTT, the “relative binding free energy” value came to 0.17 kcal/mol.

On to AGCGGCACGTGGGCGA, for which the “relative binding free energy” value was -0.27 kcal/mol.

As to ATGGGCACGTGGTCGC, the “relative binding free energy” value was -0.17 kcal/mol.

Take CTGTACACGTGAGCGT: the “relative binding free energy” value stood at 0.26 kcal/mol.

For TTGCACACGTGTCGTG, the “relative binding free energy” value is 0.1 kcal/mol.

Consider TTGTGCACGTGAGATT, for which the “relative binding free energy” value came out at 0.32 kcal/mol.

Consider AGCGACACGTGGTTTG, for which the “relative binding free energy” value is -0.05 kcal/mol.

Turning to TGTATCACGTGATTTC, the “relative binding free energy” value came to 0.26 kcal/mol.

With AGTTGCACGTGAGGAT, the “relative binding free energy” value turned out to be 0.22 kcal/mol.

Take TCTTGCACGTGTGCGG: the “relative binding free energy” value was 0.05 kcal/mol.

Regarding TGTGGCACGTGTCTGA, the “relative binding free energy” value was -0.04 kcal/mol.

Take CGTATCACGTGATGTA: the “relative binding free energy” value came out at 0.13 kcal/mol.

For GAGTTCACGTGGGTCT, the “relative binding free energy” value was 0.3 kcal/mol.

As to GGGGTCACGTGCGGGC, the “relative binding free energy” value stood at 0.18 kcal/mol.

ATGACCACGTGGGTTG: the “relative binding free energy” value is -0.13 kcal/mol.

Take AGTATCACGTGGACGG: the “relative binding free energy” value is 0.06 kcal/mol.

For TATGGCACGTGGCATT, the “relative binding free energy” value is -0.14 kcal/mol.

Regarding CGCGGCACGTGTGGGG, the “relative binding free energy” value was -0.09 kcal/mol.

In the case of TAAGTCACGTGGCTTT, the “relative binding free energy” value came out at 0.06 kcal/mol.

With GAGGTCACGTGATAGA, the “relative binding free energy” value turned out to be 0.35 kcal/mol.

Turning to TCGATCACGTGTGGGT, the “relative binding free energy” value came out at 0.16 kcal/mol.

For the sequence GCTGGCACGTGTTTTG, the “relative binding free energy” value is -0.13 kcal/mol.

Consider GGGTCCACGTGCTGTG, for which the “relative binding free energy” value was determined as 0 kcal/mol.

As for ATCTACACGTGGTGTG, the “relative binding free energy” value was found to be 0.03 kcal/mol.

For TGGTACACGTGTTAGT, the “relative binding free energy” value is 0.01 kcal/mol.

Turning to GATGTCACGTGGGATT, the “relative binding free energy” value turned out to be 0.05 kcal/mol.

For TTGTACACGTGTGGCA, the “relative binding free energy” value came to 0.06 kcal/mol.
